{"source": "paper PMC4336329", "about": "(PLoS ONE, 2015)", "note": "The campaign covered roughly 310,000 compounds. About 14,000 (4.5%) showed an effect of 50% or more. Effects have a minus sign here. The list shows a part of the results.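 Also: peak tail current of the secondary pulse compared with the same well before compound.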"}
{"target": "human ether-à-go-go-related gene (hERG) potassium channel (human, UniProt Q12809)", "sequence (Q12809 whole entry, looked up)": "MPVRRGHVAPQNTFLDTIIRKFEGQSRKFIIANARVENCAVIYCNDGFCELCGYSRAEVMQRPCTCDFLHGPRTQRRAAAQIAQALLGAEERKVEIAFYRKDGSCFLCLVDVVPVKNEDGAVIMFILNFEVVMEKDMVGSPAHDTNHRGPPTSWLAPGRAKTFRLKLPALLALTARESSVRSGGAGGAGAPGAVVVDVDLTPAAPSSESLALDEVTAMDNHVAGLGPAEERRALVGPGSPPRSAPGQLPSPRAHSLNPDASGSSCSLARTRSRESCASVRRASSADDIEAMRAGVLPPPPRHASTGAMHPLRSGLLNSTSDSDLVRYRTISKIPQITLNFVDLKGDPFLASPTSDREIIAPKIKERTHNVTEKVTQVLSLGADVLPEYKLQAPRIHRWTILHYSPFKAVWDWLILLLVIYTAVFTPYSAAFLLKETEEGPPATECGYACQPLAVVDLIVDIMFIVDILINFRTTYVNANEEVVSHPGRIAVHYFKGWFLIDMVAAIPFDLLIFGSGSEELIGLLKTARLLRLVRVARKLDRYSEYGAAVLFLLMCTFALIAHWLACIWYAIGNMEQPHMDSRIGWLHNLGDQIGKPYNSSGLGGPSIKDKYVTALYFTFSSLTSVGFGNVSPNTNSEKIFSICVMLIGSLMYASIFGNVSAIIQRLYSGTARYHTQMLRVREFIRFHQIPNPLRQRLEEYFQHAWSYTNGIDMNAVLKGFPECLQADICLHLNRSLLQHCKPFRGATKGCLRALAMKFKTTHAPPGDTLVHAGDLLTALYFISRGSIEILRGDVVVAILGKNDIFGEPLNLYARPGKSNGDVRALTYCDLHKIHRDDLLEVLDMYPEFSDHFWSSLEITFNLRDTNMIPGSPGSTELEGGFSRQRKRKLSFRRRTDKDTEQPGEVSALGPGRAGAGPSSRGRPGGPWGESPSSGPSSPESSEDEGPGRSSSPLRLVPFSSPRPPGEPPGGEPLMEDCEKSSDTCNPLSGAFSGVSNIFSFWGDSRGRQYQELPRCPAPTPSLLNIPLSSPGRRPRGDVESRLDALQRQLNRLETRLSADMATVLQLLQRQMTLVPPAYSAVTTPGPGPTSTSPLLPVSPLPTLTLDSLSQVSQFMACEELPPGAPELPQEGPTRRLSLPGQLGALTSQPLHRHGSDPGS", "assay": "primary screen, population patch clamp on CHO cells stably expressing hERG", "units": {"hERG current change (%, negative = inhibition) at 10uM": "%"}}
{"smiles": "O=C(COc1ccc(Br)cc1F)N1CCN(c2ncccn2)CC1", "hERG current change (%, negative = inhibition) at 10uM": -33.8}
{"smiles": "Oc1ccc(Br)cc1CN1CCCCCCC1", "hERG current change (%, negative = inhibition) at 10uM": -47.6}
{"smiles": "Nc1nc(SCc2ccc(Cl)cc2)[nH]c(=O)c1-c1ccccc1", "hERG current change (%, negative = inhibition) at 10uM": -1.24}
{"smiles": "O=C(COc1cc(F)ccc1[N+](=O)[O-])Nc1ccc2c(c1)OCO2", "hERG current change (%, negative = inhibition) at 10uM": 1.25}
{"smiles": "O=c1c2ccc(Cl)cc2nc2n1CC/C2=C\\c1cccc(O)c1", "hERG current change (%, negative = inhibition) at 10uM": 13.8}
{"smiles": "C=CCn1c(SCC(=O)Nc2nc(C)cs2)nnc1C(C)NC(=O)c1ccccc1Cl", "note": "(stereo not shown)", "hERG current change (%, negative = inhibition) at 10uM": -13.6}
{"smiles": "Cc1ccc(C)c(S(=O)(=O)N2CCCC2CNC(=O)C(=O)NCCN2CCOCC2)c1", "note": "(stereo not shown)", "hERG current change (%, negative = inhibition) at 10uM": 3.93}
{"smiles": "COc1cccc(OC)c1OCCN(C)C.O=C(O)C(=O)O", "hERG current change (%, negative = inhibition) at 10uM": 1.44}
{"smiles": "Cc1nc(N2CCOCC2)c2c(C)c(C(=O)Nc3ccc(F)cc3F)sc2n1", "hERG current change (%, negative = inhibition) at 10uM": -10.3}
{"smiles": "COC(=O)c1nn(-c2cccc(Cl)c2)cc(OC)c1=O", "hERG current change (%, negative = inhibition) at 10uM": 10.4}
{"smiles": "O=C(CN1C(=O)C2C3C=CC(C3)C2C1=O)NCCc1ccccc1Cl", "note": "(stereo not shown)", "hERG current change (%, negative = inhibition) at 10uM": 10.6}
{"smiles": "CCOc1ccccc1CNS(=O)(=O)c1cc(-c2cc(C)no2)ccc1OC", "hERG current change (%, negative = inhibition) at 10uM": -18.4}
{"smiles": "COc1ccc(N2CCN(C(=O)c3cccc(NC4=NC5CS(=O)(=O)CC5S4)c3)CC2)cc1", "note": "(stereo not shown)", "hERG current change (%, negative = inhibition) at 10uM": 19}
{"smiles": "CC(=O)O.COc1cc2c(C#N)c(N3CCCC3)nc(N)c2c(N)n1", "hERG current change (%, negative = inhibition) at 10uM": -10.2}
{"smiles": "CCN(CC1CCCO1)C(=O)c1cc(COc2ccccc2SC)on1", "note": "(stereo not shown)", "hERG current change (%, negative = inhibition) at 10uM": -85.6}
{"smiles": "O=C(COc1ccccc1Cl)N1CCCC(N2CCN(c3ccc(F)cc3)CC2)C1", "note": "(stereo not shown)", "hERG current change (%, negative = inhibition) at 10uM": -65.8}
{"smiles": "O=C(N/N=C/c1ccc(OC(=O)c2ccccc2)c([N+](=O)[O-])c1)c1ccc(O)cc1", "hERG current change (%, negative = inhibition) at 10uM": 16.4}
{"smiles": "Cc1ccc(-n2c(=S)[nH]c3sc4c(c3c2=O)CCC4)cc1", "hERG current change (%, negative = inhibition) at 10uM": 26.6}
{"smiles": "CCCCn1c(N)c(N(CCOC)C(=O)c2ccc(-c3ccc(C(C)=O)cc3)o2)c(=O)[nH]c1=O", "hERG current change (%, negative = inhibition) at 10uM": 1.35}
{"smiles": "C=CCN(C(=O)C1=NN(C2CCS(=O)(=O)C2)C(=O)CC1)c1nc(-c2ccc([N+](=O)[O-])cc2)cs1", "note": "(stereo not shown)", "hERG current change (%, negative = inhibition) at 10uM": -63.5}
{"smiles": "COc1ccc(CC(=O)OCC(=O)Nc2ccc3[nH]c(=O)[nH]c3c2)cc1", "hERG current change (%, negative = inhibition) at 10uM": 7.97}
{"smiles": "CC1CCN(C(=O)c2ccc3c(c2)NC(=O)/C(=C/c2ccccc2)S3)CC1", "hERG current change (%, negative = inhibition) at 10uM": 11}
{"smiles": "Cc1ccccc1/C=C1\\Sc2ccc(C(=O)N3CCN(c4ccccn4)CC3)cc2N(C)C1=O", "hERG current change (%, negative = inhibition) at 10uM": -26.1}
{"smiles": "CCc1nc2ccccc2n1CC(C)C(=O)O.Cl", "note": "(stereo not shown)", "hERG current change (%, negative = inhibition) at 10uM": 7.67}
{"smiles": "Cc1ccc(NC(=O)COc2cccnc2[N+](=O)[O-])cc1S(=O)(=O)N1CCOCC1", "hERG current change (%, negative = inhibition) at 10uM": -21.1}
{"smiles": "COc1ccc(/C=N/NC(=S)NCc2ccccc2)cc1OC", "hERG current change (%, negative = inhibition) at 10uM": 0.0154}
{"smiles": "Cc1cc(C)nc(NC(=O)Cc2ccc(Cl)cc2)c1", "hERG current change (%, negative = inhibition) at 10uM": -5.94}
{"smiles": "CC(C)(C)C1CCC2(CC1)C(C#N)=C(SCC(=O)NC1CCCCC1)NC(=O)C2C#N", "note": "(stereo not shown)", "hERG current change (%, negative = inhibition) at 10uM": -6.68}
{"smiles": "Cc1cc(C)cc(NC(=S)N2CCN(CCO)CC2)c1", "hERG current change (%, negative = inhibition) at 10uM": 14.3}
{"smiles": "Cc1cc(-c2ccc(C)c(S(=O)(=O)NCCN3CCC(C)CC3)c2)on1", "hERG current change (%, negative = inhibition) at 10uM": -12.8}
{"smiles": "CC(=O)Nc1ccc(NC(=O)CSc2ccc3nnc(CCNS(=O)(=O)c4ccc(C)cc4)n3n2)cc1", "hERG current change (%, negative = inhibition) at 10uM": -43.1}
{"smiles": "Cc1cc(C)c(OCCCNC2CCCC2)c(Br)c1.O=C(O)C(=O)O", "hERG current change (%, negative = inhibition) at 10uM": -34.5}
{"smiles": "COc1ccc2oc(=N)c(C(=O)NCc3ccccc3)cc2c1", "hERG current change (%, negative = inhibition) at 10uM": 6.24}
{"smiles": "Cc1ccc(CNC(=O)CS(=O)(=O)CC(=O)O)cc1", "hERG current change (%, negative = inhibition) at 10uM": 18.3}
{"smiles": "CC(=O)Nc1cc(C(=O)N2CCCC2)ccc1S(=O)(=O)c1ccc(Cl)cc1", "hERG current change (%, negative = inhibition) at 10uM": 4.95}
{"smiles": "CCCS(=O)(=O)N1CCN(C(=O)COc2ccc(OC)cc2)CC1.O=C(O)C(=O)O", "hERG current change (%, negative = inhibition) at 10uM": 3.39}
{"smiles": "O=C(NNC(=O)c1oc2ccccc2c1-n1cccc1)c1ccco1", "hERG current change (%, negative = inhibition) at 10uM": 11.2}
{"smiles": "COc1ccccc1NC(=S)NCc1cccs1", "hERG current change (%, negative = inhibition) at 10uM": -5.91}
{"smiles": "NC(=S)N=Nc1c(O)[nH]c2ccc(F)cc12", "hERG current change (%, negative = inhibition) at 10uM": 12.8}
{"smiles": "COc1ccc(C=O)cc1O", "hERG current change (%, negative = inhibition) at 10uM": 1.96}
{"smiles": "CCOc1ccc(NC(=O)c2ccc(N3CC4CC(C3)c3cccc(=O)n3C4)c(N)c2)cc1", "note": "(stereo not shown)", "hERG current change (%, negative = inhibition) at 10uM": -21.7}
{"smiles": "CCC(CC)NC(=O)c1cc([N+](=O)[O-])ccc1N1CCOCC1", "hERG current change (%, negative = inhibition) at 10uM": 6.79}
{"smiles": "Cc1ccc(C2=NN(CCC(=O)N3CCC4(CC3)OCCO4)C(=O)CC2)cc1", "hERG current change (%, negative = inhibition) at 10uM": -57.5}
